Experimental data reported in publication PMC4336329 (PLoS ONE, 2015).
Screen size: about 310,000 compounds; about 14,000 (4.5%) showed an effect of 50% or more. The effect is printed as a negative number. The list shows a part of the results.

Each compound was assayed against human ether-à-go-go-related gene (hERG) potassium channel (human, UniProt Q12809) (assay: primary screen, population patch clamp on CHO cells stably expressing hERG).
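Note: peak tail current of the secondary pulse compared with the same well before compound.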

Chain of human ether-à-go-go-related gene (hERG) potassium channel (Q12809 whole entry, looked up): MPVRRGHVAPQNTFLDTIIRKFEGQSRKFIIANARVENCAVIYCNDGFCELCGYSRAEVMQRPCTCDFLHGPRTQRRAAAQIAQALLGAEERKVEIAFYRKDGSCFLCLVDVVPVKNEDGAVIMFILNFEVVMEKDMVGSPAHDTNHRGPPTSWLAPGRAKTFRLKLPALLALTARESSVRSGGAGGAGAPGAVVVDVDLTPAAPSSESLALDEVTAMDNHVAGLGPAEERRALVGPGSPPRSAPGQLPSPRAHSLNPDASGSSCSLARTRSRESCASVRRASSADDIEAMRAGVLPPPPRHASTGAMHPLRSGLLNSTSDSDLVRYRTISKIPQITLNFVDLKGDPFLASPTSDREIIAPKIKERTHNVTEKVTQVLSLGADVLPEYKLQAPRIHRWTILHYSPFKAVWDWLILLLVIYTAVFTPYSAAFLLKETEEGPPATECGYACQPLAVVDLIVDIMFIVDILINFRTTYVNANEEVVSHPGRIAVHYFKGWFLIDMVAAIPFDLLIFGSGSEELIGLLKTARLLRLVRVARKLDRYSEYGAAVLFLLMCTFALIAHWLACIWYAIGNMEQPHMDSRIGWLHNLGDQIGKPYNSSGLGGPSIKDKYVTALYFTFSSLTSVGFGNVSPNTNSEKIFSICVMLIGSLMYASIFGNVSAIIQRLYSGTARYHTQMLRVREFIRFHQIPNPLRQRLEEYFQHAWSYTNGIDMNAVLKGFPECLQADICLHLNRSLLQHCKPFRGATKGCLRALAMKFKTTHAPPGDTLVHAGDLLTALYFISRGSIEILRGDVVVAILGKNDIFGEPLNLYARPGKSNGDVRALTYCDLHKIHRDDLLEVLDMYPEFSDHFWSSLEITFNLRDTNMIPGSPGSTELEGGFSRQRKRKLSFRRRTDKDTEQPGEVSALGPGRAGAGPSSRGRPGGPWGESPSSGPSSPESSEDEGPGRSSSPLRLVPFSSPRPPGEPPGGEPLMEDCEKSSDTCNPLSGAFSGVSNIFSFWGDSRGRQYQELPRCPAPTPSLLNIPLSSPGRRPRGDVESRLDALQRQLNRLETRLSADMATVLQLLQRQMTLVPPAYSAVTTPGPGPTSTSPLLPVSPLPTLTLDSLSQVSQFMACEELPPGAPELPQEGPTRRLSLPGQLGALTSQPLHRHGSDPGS

| Compound | hERG current change (%, negative = inhibition) at 10uM [%] |
| --- | --- |
| COc1ccc(NC(=O)Cn2c(=O)n(-c3ccc(OC)cc3OC)c(=O)c3c(C)c(C)sc32)cc1 | -6.58 |
| Cc1c(N/C=C/C(=O)c2cccs2)c(=O)n(-c2ccccc2)n1C | -11 |
| COc1ccc(N=C2SCC(c3ccc(C)cc3)=NN2CCO)cc1 | -9.63 |
| O=C(CNCC1CCCCC1)Nc1ccc(N2CCCCC2)cc1.O=C(O)C(=O)O | -17.3 |
| Cc1cc(C)n(-c2nc3ccccc3c(=O)n2OCC(N)=O)n1 | 10.4 |
| CCOc1cc(/C=C2\C(=O)NN(c3ccccc3)C2=O)cc([N+](=O)[O-])c1O | 33 |
| Cc1cc(NC(=O)CSc2nc(N)c(NC(=O)c3ccc(F)c(F)c3)c(=O)[nH]2)no1 | 21.4 |
| CNc1nc(N)nc(-c2cc(Cl)ccc2OC)n1 | 18.7 |
| O=C(Nc1ccccc1)Nc1ccc(Oc2cccnc2)nc1 | -4.77 |
| CC1(C)CC2CC(C)(CN2C(=O)NC(=O)c2ccccc2)C1 (stereo not drawn) | -7.68 |
| CN(C)c1cccc(C(=O)OCC(=O)NCc2ccco2)c1 | -2.26 |
| Cc1ccc(CSc2nc3ccncc3[nH]2)cc1 | -32.9 |
| COc1ccccc1NC(=O)NCc1ccco1 | 16.1 |
| CC(=O)N1CCN(c2ccc(NC(=O)c3cc4ccccc4o3)cc2)CC1 | -24.5 |
| CCn1c(=O)cc(SCC(=O)Nc2cccc(C)n2)c2ccccc21 | 8.79 |
| COc1ccc(-c2cc(-c3nnc(-c4ccncc4)o3)c3ccccc3n2)cc1 | -1.08 |
| O=C(NCc1ccco1)c1ccc(COc2ccccc2Cl)cc1 | 1.04 |
| COC(=O)c1ccc(Oc2nc(C)cc(Oc3ccccc3)n2)cc1 | -13.8 |
| Cc1cc(C)n2nc(C(=O)NCc3ccco3)cc2n1 | 10.4 |
| COc1ccc(-n2c(SCC(=O)NNC(=O)c3ccccc3C)nnc2-c2ccncc2)cc1 | -7.21 |
| COc1ccc(Cl)cc1NC(=O)CSc1nnc(COc2ccccc2)n1C | -57.3 |
| COc1ccc(-n2nnc3c(=O)n(Cc4cc(C)ccc4C)cnc32)cc1 | -0.607 |
| Cc1ccccc1Nc1nc(N)nc(CN(C)c2ccccc2)n1 | 3.75 |
| CN(C)S(=O)(=O)Oc1ccc(C(=O)Nc2ccc([N+](=O)[O-])cc2)cc1 | -2.27 |
